# From the supplement of paper PMC3334620
# The full ranking holds about 33,000 sequences; the median of “E-score (-0.5 to 0.5)” is about -0.012, and the highest 2% start at about 0.27. Some of the results follow.
# Biological target: T1, Vhr1 (UniProt P40522)
# T1 sequence: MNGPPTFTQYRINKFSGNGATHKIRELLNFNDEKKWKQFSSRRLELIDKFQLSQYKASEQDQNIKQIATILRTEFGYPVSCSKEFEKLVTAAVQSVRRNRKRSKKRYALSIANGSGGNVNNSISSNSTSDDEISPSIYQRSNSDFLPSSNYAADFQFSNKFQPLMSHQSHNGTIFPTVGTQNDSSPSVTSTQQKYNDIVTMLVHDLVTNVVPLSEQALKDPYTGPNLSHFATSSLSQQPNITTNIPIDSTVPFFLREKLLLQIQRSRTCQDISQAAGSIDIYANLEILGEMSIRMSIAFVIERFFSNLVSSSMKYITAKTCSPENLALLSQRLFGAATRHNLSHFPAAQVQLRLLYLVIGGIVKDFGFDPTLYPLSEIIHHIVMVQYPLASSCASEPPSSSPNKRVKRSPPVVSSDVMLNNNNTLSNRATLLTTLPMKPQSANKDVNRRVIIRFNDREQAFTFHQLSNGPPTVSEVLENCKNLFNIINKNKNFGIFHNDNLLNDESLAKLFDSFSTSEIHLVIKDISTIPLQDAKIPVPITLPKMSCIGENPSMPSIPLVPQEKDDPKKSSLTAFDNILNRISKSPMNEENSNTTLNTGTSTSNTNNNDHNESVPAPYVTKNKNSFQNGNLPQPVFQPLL
# Assay: PBM E-score (8-mer binding enrichment) (E-score (-0.5 to 0.5)); higher = stronger / more preferred TF binding; most listed sequences are background and not binding sites
# Details: protein concentration: 200 nM; construct: GST-full length
# Procedure: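 Universal 'all 10-mer' protein binding microarrays (Agilent AMADID 015681) probed with GST-tagged S. cerevisiae TFs (full-length or DBD) made by in vitro transcription/translation (PURExpress), about 100-200 nM. Bound TF was detected with fluorescent anti-GST. Each ungapped 8-mer (which stands for itself and its reverse complement) is scored by the PBM enrichment score (E-score), a modified Wilcoxon-Mann-Whitney statistic from -0.5 to +0.5, computed with the Universal PBM Analysis Suite. Scale: above 0.35 generally sequence-specific binding.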
row,Sequence,PBM E-score
1,CAATTTGG,-0.158
2,GCTTGTCA,-0.11
3,CTCCCACA,-0.0608
4,CACGTATG,0.073
5,CGGAATCA,0.412
6,GGCCTTCA,-0.0959
7,AAATGGAG,0.0249
8,ATTCACGG,0.0271
9,AGCTAGTG,0.119
10,GTTAAGAA,-0.22
11,CCTCGTGA,0.00771
12,AATGGACA,-0.00426
13,GCGGAGAA,0.00312
14,TGTTATAA,0.163
15,AACCCAAT,0.0167
16,CAACCCAC,0.248
17,CCCTGTAC,-0.0291
18,CAACTCCC,0.0862
19,CGCTTCGC,-0.137
20,AAGTTCAC,0.0411
21,AGTTCACG,-0.244
22,CCTGGCGC,0.0921
23,CCGACAAA,-0.0927
24,CCGAGAAG,-0.173
25,CGCAAGTA,-0.00503

row,Sequence,PBM E-score
1,AACCGAAC,-0.0679
2,CCGCTCGA,-0.0637
3,CCTGTCTA,0.0253
4,CGGTGAGC,0.0551
5,ATAGTGTC,0.13
6,TCTGAAAA,-0.27
7,CATATAAA,-0.133
8,GAGCCACC,0.228
9,ATGCAAAA,-0.135
10,CATCACCG,-0.0076
11,CGGATCTC,-0.0666
12,CCTCGAAC,-0.0493
13,CTCTCGGA,0.135
14,GCACTTCA,-0.188
15,ATATTCTC,0.126
16,CATATGAC,0.267
17,GAGTTACA,0.171
18,CATTATGC,0.138
19,CCCATATA,0.165
20,GGGACACA,0.297
21,AGTGAAAC,0.068
22,CCCATCCG,0.0692
23,ATTTCTTG,-0.159
24,GTAAGCCA,-0.0205
25,CATCATGC,0.201

row,Sequence,PBM E-score
1,AAGCGGAA,-0.115
2,GACGCAAC,-0.169
3,AAGTCCAT,-0.148
4,ACAAGGTC,0.0988
5,ATCCATCC,0.156
6,CCCGGCAC,-0.144
7,CCCAAGTA,-0.0374
8,CTAGCAGA,-0.204
9,AATCAAGG,0.0679
10,CTGAGGGA,-0.142
11,GCAGTTTA,-0.221
12,GTACGCAA,-0.0437
13,ATTTAAAA,-0.063
14,GTCAAGAA,0.0425
15,ATTGTGAC,0.216
16,GGGACCTA,-0.0807
17,CGCACACG,0.0985
18,AGAGTCTA,-0.281
19,CGAACCTC,0.062
20,AACGGTGC,-0.231
21,ACTGGGCC,-0.169
22,CCCAAACC,-0.0342
23,CAATAATA,0.00445
24,AAGTGGAA,-0.00351
25,CAGCCTTA,-0.297

row,Sequence,PBM E-score
1,TCATTCAA,-0.00198
2,GGAGTGAA,-0.137
3,GTGTCGGA,0.155
4,TAGAAGCA,-0.107
5,AGGTGTTG,-0.0372
6,AACCATAA,0.162
7,ACCGCACC,0.148
8,AGCACCGC,0.0822
9,AGCTGAAG,-0.228
10,CTGGCAGC,-0.118
11,ACGCGTCC,-0.0535
12,AGCATTTA,-0.14
13,AGACTTGC,-0.249
14,CGGATCCC,-0.0949
15,ACAATGGC,0.0588
16,GTACTGAA,0.143
17,CTGGCCGA,-0.131
18,CAATCATG,0.289
19,ACCATGCA,0.11
20,GATTCGCA,0.276
21,CAATCATC,0.284
22,GCGAGACA,0.164
23,AGTTCTGG,0.115
24,ACCGCCAT,0.156
25,AAGCCCAC,0.0299

row,Sequence,PBM E-score
1,CTTCGCCA,-0.0994
2,ACGTCCCG,-0.193
3,GATAGGCC,-0.2
4,GATTACCC,0.118
5,CAAAATCG,-0.0385
6,GACCCGAA,0.013
7,CCTAAGGC,-0.393
8,GTCTTCTA,-0.204
9,CGCTTTGC,-0.127
10,AGGCGCAT,-0.0966
11,AGTCACGG,0.417
12,CTAATTCC,-0.15
13,CACACGCC,0.196
14,AGGAGGTG,-0.227
15,ACAAGCTG,0.0668
16,CGAGATCC,-0.0376
17,CACCTAAA,-0.0371
18,AAGCAGTA,-0.0911
19,CATGGTCA,0.172
20,GCGTAGCC,-0.0467
21,ATCGAGAA,0.0911
22,AGAAAGGG,-0.215
23,GGCTAATA,-0.0251
24,CAAGCGCG,0.105
25,ATGGTCAA,0.0129

row,Sequence,PBM E-score
1,CGCAGACA,0.105
2,CATAGTGA,0.101
3,CATCCCAG,-0.0387
4,ATATTCCA,0.138
5,CATATACA,0.229
6,CTAGGTAC,-0.106
7,GGATGCCC,-0.308
8,ACCGAGCT,0.0466
9,GCGCTGAC,0.125
10,CTGCACCC,0.0202
11,ATGACGGC,0.0343
12,CGAGGAAA,-0.168
13,CTATTTTC,0.0035
14,AGATATGC,0.103
15,AAGCGTCC,-0.146
16,CAGCAGAG,0.065
17,GCTGGCCC,-0.114
18,CTTTACAC,0.0138
19,AAATCCTC,-0.00246
20,ATAACTCC,-0.0845
21,TCGTTGAA,-0.0916
22,AAGGTACA,-0.057
23,AAAAGTCA,0.0475
24,CGCTAAAG,-0.166
25,ACTTGTGC,-0.0632

row,Sequence,PBM E-score
1,CAAAGAGA,-0.299
2,CATTATCG,-0.0632
3,ATCGGTCA,-0.0294
4,GACGGTTA,0.0723
5,GAATAATA,0.0251
6,ACAAGGAT,-0.00316
7,CTACGTAC,0.0113
8,ACGGAACC,-0.0225
9,CTGGTGAA,-0.0534
10,CGTCCCCA,-0.129
11,GGATTTGA,-0.0695
12,CTCTGCAC,-0.101
13,AAAGCACT,0.0418
14,AATACGCC,-0.00077
15,CCGCTATC,0.071
16,AAAGCGAC,0.128
17,ATAAAAAG,0.0182
18,GGGAATAA,-0.0372
19,CCATCGCC,0.0886
20,CACGGTGC,0.0709
21,ACGACCCG,0.00714
22,ACGGGGGA,0.0431
23,CCTATACA,0.134
24,ACTTAATC,-0.0768
25,ACGATTGC,0.0187

row,Sequence,PBM E-score
1,GTCACCTA,0.0565
2,GTCAGTCA,0.267
3,CTGTATAC,-0.0296
4,GTACAGCA,-0.084
5,ATACACAT,0.176
6,ACAGATAC,0.087
7,AGGTTTTC,-0.164
8,AGCCTAGG,-0.299
9,ACCTTAAA,-0.214
10,AATTCGGT,0.0216
11,GGCATCAC,-0.0483
12,GGTATCAC,0.121
13,ACATACCG,0.145
14,AGCATCAT,-0.0183
15,TACGATAA,0.0471
16,CAAATTTC,-0.248
17,AACTCGCT,0.0478
18,AGCTCGCA,-0.0374
19,GACCACTC,0.169
20,GTACCTCA,0.0679
21,CTAGGCAC,-0.102
22,GCCTGATA,-0.156
23,AAAGGAAG,-0.0552
24,CTCGCGAA,-0.261
25,TACTCAGA,0.152

row,Sequence,PBM E-score
1,ATTAGAGC,0.138
2,ACATCGAT,0.133
3,ACTAAGGA,-0.0654
4,CTGACTGC,0.298
5,GTGGAGGA,0.0858
6,GACACGCC,0.122
7,AGCTGGTA,-0.0643
8,CTCAGTCA,0.362
9,GGAAATTA,-0.122
10,GAGAGCCC,-0.25
11,ACAGTCTG,-0.0561
12,GAGCCAGA,0.128
13,TCGCCCGA,-0.00197
14,CGGATAGC,-0.122
15,CCGTCAAA,-0.343
16,GATTTGAA,-0.132
17,TCGGCCAA,-0.101
18,CGAATGGC,0.124
19,CAGGGACG,-0.108
